The values below come from the supplement of paper PMC3334620.

Whole data set: some 33,000 sequences, median “E-score (-0.5 to 0.5)” near -0.035, cut for the highest 2% near 0.34. This is one part of the list.

The experiment concerns the target T1, Mot3 (UniProt P54785).
T1 sequence: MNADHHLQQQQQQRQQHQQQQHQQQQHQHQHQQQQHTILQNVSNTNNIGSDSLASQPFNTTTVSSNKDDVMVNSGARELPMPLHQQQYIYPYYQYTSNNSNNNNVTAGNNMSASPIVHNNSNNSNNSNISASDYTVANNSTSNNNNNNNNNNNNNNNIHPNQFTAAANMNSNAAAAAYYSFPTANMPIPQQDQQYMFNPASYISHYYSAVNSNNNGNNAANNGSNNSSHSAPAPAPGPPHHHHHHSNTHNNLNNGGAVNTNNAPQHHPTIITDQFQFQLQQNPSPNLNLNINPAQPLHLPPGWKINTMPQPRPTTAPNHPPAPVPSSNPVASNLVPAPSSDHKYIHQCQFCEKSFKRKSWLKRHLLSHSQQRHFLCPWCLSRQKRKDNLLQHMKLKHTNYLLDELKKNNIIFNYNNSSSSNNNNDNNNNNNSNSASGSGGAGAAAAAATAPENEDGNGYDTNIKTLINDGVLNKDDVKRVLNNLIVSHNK
Nature of the experiment: PBM E-score (8-mer binding enrichment) (E-score (-0.5 to 0.5)); higher = stronger / more preferred TF binding; most listed sequences are background and not binding sites. The following applies: protein concentration: 200 nM; construct: GST-full length. Put shortly:
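Yeast transcription factors, full-length or as DNA-binding domains, were expressed with a GST tag using PURExpress in vitro transcription/translation. At about 100-200 nM they were applied to universal all-10-mer Agilent arrays, double-stranded by primer extension on fresh or once-stripped slides. Fluorescent anti-GST detected bound protein, and masliner normalised the scans. E-scores for ungapped eight-base words, pooled with reverse complements, came from the Universal PBM Analysis Suite.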
For TATGACCA, the “PBM E-score” value was 0.142.
The result for CGTGTAAG reads 0.38; that for ACGCTATC, -0.0382.
For AGTAGACG the value was 0.0279.
For AATACTAC the value was 0.155; for CCTCCGTC, -0.157.
On to GAAGTGTA, for which the “PBM E-score” value was determined as 0.106.
The result for TGGAGTAA reads -0.00595; that for CGAAATCC, -0.0979; that for CCCAGGGA, -0.345.
Regarding CGAGTATA, the “PBM E-score” value was -0.0712.
The result for ACATATGC reads 0.197.
TCTTGCAA: the “PBM E-score” value was -0.0197.
For ATATTTTA the value was 0.103; for CGCTAACA, 0.22; for ACGTTATC, 0.0877.
The result for AGCACTGA reads -0.122; that for GCCACCGA, -0.138.
AGACCGAC: the “PBM E-score” value was -0.111.
Turning to AACAGCCT, the “PBM E-score” value turned out to be 0.0281.
The result for ATCCTGAC reads 0.0953.
Consider CGAATTAA, for which the “PBM E-score” value is 0.0895.
For AAACGTGC, the “PBM E-score” value worked out at 0.118.
The result for AGCTTCCG reads -0.172; that for CCATGTCG, 0.247.
For ATGGCGTC, the “PBM E-score” value was -0.0713.
On to ACTTGCGA, for which the “PBM E-score” value was -0.11.
The result for AAGTATAT reads 0.109; that for CCGGACCA, -0.137.
For the sequence ACAAGCCC, the “PBM E-score” value amounted to 0.0399.
For AGGTAAAG the value was 0.269.
For ACTGCGCA the value was -0.17; for AATTACTG, 0.111.
ACCCCATC: the “PBM E-score” value was -0.194.
The result for CATGGACC reads 0.0841; that for ACAGTTGA, 0.0328; that for ATCCGACC, -0.0318.
Consider ATCAGTAG, for which the “PBM E-score” value was -0.044.
The result for AGTTTATA reads 0.0613; that for CCCATAAC, 0.0479; that for CCATGTCA, 0.287.
For GGCAGCCC the value was -0.195.
The result for AGCAAGCG reads -0.308; that for CCTTGGAC, -0.161; that for CTTAGTGC, 0.0583.
For GGGGACAC, the “PBM E-score” value is -0.189.
For ACAGGCAT, the “PBM E-score” value stood at 0.409.
For AGCCGGAG the value was -0.151; for AGGATCGA, -0.0463; for GTATACAC, 0.323.
For CCTGAACC the value was 0.206.
The result for AAGCCTAC reads 0.0015; that for CACCGGGC, -0.309; that for GGGGGTGA, -0.228.
In the case of AACCCACT, the “PBM E-score” value was -0.119.
For AGGAGGAT the value was -0.0525; for CTTGGAAA, 0.088; for ACCAGCCT, -0.27.
The result for GCTTGTCC reads -0.0746; that for CCAGCGAG, -0.181.
For CCCGCTTC the value was -0.191; for GTTAAAAA, 0.285.
In the case of ATCAATTC, the “PBM E-score” value is -0.0725.
The result for GTTGCGCA reads -0.0856; that for TGTCCAAA, 0.116; that for GTGTCCGA, -0.14.
The result for AAGACCTT reads -0.109.
For ATTCCGTC the value was -0.135; for CTGAACAC, 0.109; for AGCCATCC, -0.22.
Consider GCGTAGGA, for which the “PBM E-score” value turned out to be 0.0588.
The result for CGCCCAGC reads -0.121; that for GAGTACCC, -0.165.
Regarding AGGCCGTC, the “PBM E-score” value is -0.209.
The result for CACAGCCA reads 0.0935.
For AGCTGGGA, the “PBM E-score” value is -0.224.
For ATCCGAGA the value was -0.269.
The result for CTACCTGC reads 0.04.
Turning to CACGACCA, the “PBM E-score” value was 0.0645.
For AGGTATAG the value was -0.0472; for GAATGCCA, -0.218; for AGTAGCGG, -0.355.
The result for CGAAACGC reads -0.117; that for GGCGGGGA, -0.131; that for CCGATCTA, -0.179.
Consider ACAGTGGT, for which the “PBM E-score” value is -0.112.
With ATCCTTTC, the “PBM E-score” value was found to be 0.00982.
The result for GGCCTAAA reads 0.0327; that for ACCAGTGG, -0.153.
The result for ACAGACAG reads -0.0028.
GACGTCGA: the “PBM E-score” value amounted to 0.136.
Take ACTGTCGA: the “PBM E-score” value is -0.165.
The result for AAATGACC reads 0.0152; that for AAAACTTT, 0.0215.
With AACGGCCA, the “PBM E-score” value is -0.121.
For CACTGGTC the value was -0.0768; for ATATTAAG, 0.0832.
Regarding GCAACGCC, the “PBM E-score” value stood at 0.0245.
For AGTTGCTC the value was -0.0447; for CGGTTACC, -0.0387.
The result for GCGTCAAA reads 0.131.
For ACACGCGT the value was 0.36; for ATGTGACA, 0.176.
As for CCCAATCA, the “PBM E-score” value is -0.114.
For CGTAGGTA the value was 0.285; for GCCTTGTA, 0.354; for CTATCGCA, -0.112.
Take CTGTGCTA: the “PBM E-score” value was -0.0938.
With AAACTCAC, the “PBM E-score” value was -0.0147.
